Consider ten variants from the supplement of paper PMC12217912.

To fix the notation:
B1: TEV protease; numbered along this chain (parent)
chain: MGESLFKGPRDYNPISSSICHLTNESDGHTTSLYGIGFGPFIITNKHLFRRNNGTLVVQSLHGVFKVKDTTTLQQHLVDGRDMIIIRMPKDFPPFPQKLKFREPQREERICLVTTNFQTKSMSSMVSDTSCTFPSGDGIFWKHWIQTKDGQCGSPLVSTRDGFIVGIHSASNFTNTNNYFTSVPKNFMELLTNQEAQQWVSGWRLNADSVLWGGHKVFMVKPEEPFQPVKEATQL

The variants in the test derive from B1. Nature of the test: raw area under fraction-flipped curve 0-4 h after induction (AUC4h, not background-subtracted), DNA-recorder readout of cleavage of the substrate (dimensionless); higher = more cleavage of the substrate by the protease variant. The note with it: temperature: 34 °C; time window: 0-4 h after rhamnose induction. The procedure: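 In vivo DNA recorder in E. coli TOP10(DE3) ΔrhaA at 34 °C. Each TEVp single-site mutant (parent TEVp 0) is paired with a single-site variant of the 7-mer TEVs (canonical ENLYFQ|S). The substrate sits between flexible linkers in a Bxb1-sfGFP-TEVs-SsrA fusion, so cleavage stabilises Bxb1 and speeds flipping of a recombination array, read by NGS. The value is the raw area under the fraction-flipped curve over 0-4 h after rhamnose induction (AUC4h), with ≥20 reads per time point. It is not background-subtracted; inactive controls average about 0.047.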

The list shows a part of the results. Sequences were assembled here from the parent chain. Inactive controls read about 0.05.
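Note: Bxb1 expression induced with 0.2% (w/v) L-rhamnose at OD600 near 0.5, cultures sampled hourly, flipped fraction per protease–substrate barcode pair counted by paired-end Illumina sequencing.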

For the variant MGESLFKGPRDYNPISSSICHLTNESDGHTTSLYGIGFGPFIITNKHLFRRNNGTLVVQSLHGVFKVKMTTTLQQHLVDGRDMIIIRMPKDFPPFPQKLKFREPQREERICLVTTNFQTKSMSSMVSDTSCTFPSGDGIFWKHWIQTKDGQCGSPLVSTRDGFIVGIHSASNFTNTNNYFTSVPKNFMELLTNQEAQQWVSGWRLNADSVLWGGHKVFMVKPEEPFQPVKEATQL [D69M], the “area with substrate ENAYFQS” value turned out to be 0.0524, the “area with substrate ENDYFQS” value was determined as 0.0566, the “area with substrate ENEYFQS” value came to 0.0677 and the “area with substrate ENFYFQS” value amounted to 0.0559. Moreover, the “area with substrate ENIYFQS” value was 0.0973, the “area with substrate ENKYFQS” value is 0.0649, the “area with substrate ENNYFQS” value came out at 0.0625 and the “area with substrate ENQYFQS” value is 0.0532. In addition, the “area with substrate ENRYFQS” value was found to be 0.0441.
Regarding MGESLFKGPRDYNPISSSICHLTNESDGHTTSLYGIGFGPFIITNKHLFRRNNGTLVVQSLHGVFTVKDTTTLQQHLVDGRDMIIIRMPKDFPPFPQKLKFREPQREERICLVTTNFQTKSMSSMVSDTSCTFPSGDGIFWKHWIQTKDGQCGSPLVSTRDGFIVGIHSASNFTNTNNYFTSVPKNFMELLTNQEAQQWVSGWRLNADSVLWGGHKVFMVKPEEPFQPVKEATQL [K66T], the “area with substrate ENAYFQS” value stood at 0.0665, the “area with substrate ENCYFQS” value is 0.0713, the “area with substrate ENDYFQS” value is 0.0666 and the “area with substrate ENEYFQS” value worked out at 0.0589. In addition, the “area with substrate ENIYFQS” value was 0.0575, the “area with substrate ENKYFQS” value was 0.0646, the “area with substrate ENMYFQS” value stood at 0.113 and the “area with substrate ENQYFQS” value was determined as 0.0559. Moreover, the “area with substrate ENRYFQS” value was determined as 0.0529, the “area with substrate ENSYFQS” value turned out to be 0.0861, the “area with substrate ENTYFQS” value is 0.069 and the “area with substrate ENVYFQS” value came to 0.064. The “area with substrate ENYYFQS” value amounted to 0.0479.
Regarding MGESLFKGPRDYNPISSSICHLTNESDGHTTSLYGIGFGPFIITNKHLFRRNNGTLVVQSLHGVFKHKDTTTLQQHLVDGRDMIIIRMPKDFPPFPQKLKFREPQREERICLVTTNFQTKSMSSMVSDTSCTFPSGDGIFWKHWIQTKDGQCGSPLVSTRDGFIVGIHSASNFTNTNNYFTSVPKNFMELLTNQEAQQWVSGWRLNADSVLWGGHKVFMVKPEEPFQPVKEATQL [V67H], the “area with substrate ENAYFQS” value stood at 0.06, the “area with substrate ENCYFQS” value worked out at 0.0716, the “area with substrate ENDYFQS” value amounted to 0.0663 and the “area with substrate ENEYFQS” value turned out to be 0.0711. Also, the “area with substrate ENFYFQS” value came to 0.0333, the “area with substrate ENGYFQS” value was 0.0639, the “area with substrate ENHYFQS” value came out at 0.0486 and the “area with substrate ENKYFQS” value was found to be 0.072. The “area with substrate ENNYFQS” value worked out at 0.0622, the “area with substrate ENQYFQS” value was determined as 0.0656, the “area with substrate ENRYFQS” value was 0.0629 and the “area with substrate ENSYFQS” value worked out at 0.0553. The “area with substrate ENVYFQS” value worked out at 0.0856 and the “area with substrate ENWYFQS” value was found to be 0.0578.
MGESLFKGPRDYNPISSSICHLTNESDGHTTSLYGIGFGPFIITNKHLFRRNNGTLVVQSLHCVFKVKDTTTLQQHLVDGRDMIIIRMPKDFPPFPQKLKFREPQREERICLVTTNFQTKSMSSMVSDTSCTFPSGDGIFWKHWIQTKDGQCGSPLVSTRDGFIVGIHSASNFTNTNNYFTSVPKNFMELLTNQEAQQWVSGWRLNADSVLWGGHKVFMVKPEEPFQPVKEATQL [G63C]: the “area with substrate ENAYFQS” value worked out at 0.0629, the “area with substrate ENCYFQS” value was determined as 0.0713, the “area with substrate ENDYFQS” value amounted to 0.0557 and the “area with substrate ENEYFQS” value came to 0.0508. Further, the “area with substrate ENFYFQS” value stood at 0.0561, the “area with substrate ENHYFQS” value came out at 0.0679, the “area with substrate ENIYFQS” value turned out to be 0.093 and the “area with substrate ENMYFQS” value is 0.0566. Moreover, the “area with substrate ENNYFQS” value is 0.0945, the “area with substrate ENPYFQS” value is 0.0436, the “area with substrate ENRYFQS” value worked out at 0.0548 and the “area with substrate ENSYFQS” value came out at 0.0659. In addition, the “area with substrate ENTYFQS” value was 0.0649, the “area with substrate ENVYFQS” value amounted to 0.0803 and the “area with substrate ENYYFQS” value is 0.0376.
For the variant MGESLFKGPRDYNPISSSICHLTNESDGHTTSLYGIGFGPFIITNKHLFRRNNGTLVVQSLHVVFKVKDTTTLQQHLVDGRDMIIIRMPKDFPPFPQKLKFREPQREERICLVTTNFQTKSMSSMVSDTSCTFPSGDGIFWKHWIQTKDGQCGSPLVSTRDGFIVGIHSASNFTNTNNYFTSVPKNFMELLTNQEAQQWVSGWRLNADSVLWGGHKVFMVKPEEPFQPVKEATQL [G63V], the “area with substrate ENAYFQS” value was found to be 0.0683, the “area with substrate ENCYFQS” value was determined as 0.0472, the “area with substrate ENDYFQS” value was determined as 0.0768 and the “area with substrate ENEYFQS” value amounted to 0.0568. Besides, the “area with substrate ENFYFQS” value came out at 0.0526, the “area with substrate ENGYFQS” value came to 0.0597, the “area with substrate ENHYFQS” value was determined as 0.0567 and the “area with substrate ENKYFQS” value stood at 0.0778. For the same variant, the “area with substrate ENMYFQS” value was 0.101, the “area with substrate ENNYFQS” value amounted to 0.0515, the “area with substrate ENPYFQS” value was found to be 0.0802 and the “area with substrate ENQYFQS” value was 0.0498. In addition, the “area with substrate ENTYFQS” value is 0.0553, the “area with substrate ENVYFQS” value came to 0.0687 and the “area with substrate ENYYFQS” value was determined as 0.0612.
MGESLFKGPRDYNPISSSICHLTNESDGHTTSLYGIGFGPFIITNKHLFRRNNGTLVVQSLHGVSKVKDTTTLQQHLVDGRDMIIIRMPKDFPPFPQKLKFREPQREERICLVTTNFQTKSMSSMVSDTSCTFPSGDGIFWKHWIQTKDGQCGSPLVSTRDGFIVGIHSASNFTNTNNYFTSVPKNFMELLTNQEAQQWVSGWRLNADSVLWGGHKVFMVKPEEPFQPVKEATQL [F65S]: the “area with substrate ENAYFQS” value is 0.0593, the “area with substrate ENCYFQS” value is 0.0603, the “area with substrate ENDYFQS” value is 0.0665 and the “area with substrate ENEYFQS” value amounted to 0.059. Besides, the “area with substrate ENFYFQS” value was determined as 0.0636, the “area with substrate ENGYFQS” value was 0.0597, the “area with substrate ENKYFQS” value was 0.064 and the “area with substrate ENNYFQS” value was 0.0599. Besides, the “area with substrate ENPYFQS” value is 0.0602, the “area with substrate ENQYFQS” value amounted to 0.039, the “area with substrate ENRYFQS” value amounted to 0.0761 and the “area with substrate ENSYFQS” value stood at 0.0667. Moreover, the “area with substrate ENWYFQS” value worked out at 0.0643.
MGESLFKGPRDYNPISSSICHLTNESDGHTTSLYGIGFGPFIITNKHLFRRNNGTLVVQSLHGVYKVKDTTTLQQHLVDGRDMIIIRMPKDFPPFPQKLKFREPQREERICLVTTNFQTKSMSSMVSDTSCTFPSGDGIFWKHWIQTKDGQCGSPLVSTRDGFIVGIHSASNFTNTNNYFTSVPKNFMELLTNQEAQQWVSGWRLNADSVLWGGHKVFMVKPEEPFQPVKEATQL [F65Y]: the “area with substrate ENAYFQS” value turned out to be 0.0778, the “area with substrate ENFYFQS” value worked out at 0.059, the “area with substrate ENGYFQS” value was determined as 0.0543 and the “area with substrate ENHYFQS” value was 0.103. In addition, the “area with substrate ENMYFQS” value is 0.0741, the “area with substrate ENQYFQS” value amounted to 0.0626, the “area with substrate ENRYFQS” value turned out to be 0.0638 and the “area with substrate ENSYFQS” value was found to be 0.0615. Moreover, the “area with substrate ENVYFQS” value was 0.0879 and the “area with substrate ENYYFQS” value came to 0.0613.
With MGESLFKGPRDYNPISSSICHLTNESDGHTTSLYGIGFGPFIITNKHLFRRNNGTLVVQSLHGSFKVKDTTTLQQHLVDGRDMIIIRMPKDFPPFPQKLKFREPQREERICLVTTNFQTKSMSSMVSDTSCTFPSGDGIFWKHWIQTKDGQCGSPLVSTRDGFIVGIHSASNFTNTNNYFTSVPKNFMELLTNQEAQQWVSGWRLNADSVLWGGHKVFMVKPEEPFQPVKEATQL [V64S], the “area with substrate ENAYFQS” value is 0.079, the “area with substrate ENDYFQS” value is 0.06, the “area with substrate ENFYFQS” value came out at 0.0648 and the “area with substrate ENGYFQS” value was 0.0355. For the same variant, the “area with substrate ENPYFQS” value was found to be 0.0558, the “area with substrate ENSYFQS” value came to 0.0579 and the “area with substrate ENYYFQS” value is 0.0836.
MGESLFKGPRDYNPISSSICHLTNESDGHTTSLYGIGFGPFIITNKHLFRRNNGTLVVQSLHGVFKVNDTTTLQQHLVDGRDMIIIRMPKDFPPFPQKLKFREPQREERICLVTTNFQTKSMSSMVSDTSCTFPSGDGIFWKHWIQTKDGQCGSPLVSTRDGFIVGIHSASNFTNTNNYFTSVPKNFMELLTNQEAQQWVSGWRLNADSVLWGGHKVFMVKPEEPFQPVKEATQL [K68N]: the “area with substrate ENAYFQS” value is 0.0648, the “area with substrate ENCYFQS” value turned out to be 0.0674, the “area with substrate ENDYFQS” value stood at 0.0661 and the “area with substrate ENEYFQS” value was found to be 0.0583. The “area with substrate ENHYFQS” value turned out to be 0.0619, the “area with substrate ENIYFQS” value worked out at 0.131, the “area with substrate ENMYFQS” value stood at 0.103 and the “area with substrate ENNYFQS” value amounted to 0.0609. The “area with substrate ENQYFQS” value came out at 0.0815, the “area with substrate ENRYFQS” value is 0.0721, the “area with substrate ENSYFQS” value was 0.0658 and the “area with substrate ENTYFQS” value stood at 0.0581. For the same variant, the “area with substrate ENVYFQS” value was determined as 0.0677 and the “area with substrate ENWYFQS” value came to 0.0518.
Take MGESLFKGPRDYNPISSSICHLTNESDGHTTSLYGIGFGPFIITNKHLFRRNNGTLVVQSSHGVFKVKDTTTLQQHLVDGRDMIIIRMPKDFPPFPQKLKFREPQREERICLVTTNFQTKSMSSMVSDTSCTFPSGDGIFWKHWIQTKDGQCGSPLVSTRDGFIVGIHSASNFTNTNNYFTSVPKNFMELLTNQEAQQWVSGWRLNADSVLWGGHKVFMVKPEEPFQPVKEATQL [L61S]: the “area with substrate ENAYFQS” value was found to be 0.0706, the “area with substrate ENCYFQS” value stood at 0.069, the “area with substrate ENEYFQS” value is 0.0617 and the “area with substrate ENFYFQS” value worked out at 0.0599. Also, the “area with substrate ENGYFQS” value was 0.0643, the “area with substrate ENNYFQS” value worked out at 0.0708, the “area with substrate ENQYFQS” value came out at 0.0598 and the “area with substrate ENRYFQS” value worked out at 0.0578. The “area with substrate ENYYFQS” value turned out to be 0.0644.
